# Data published in the BET-seq Pho4 binding data (Le et al. 2018).
# Some of the results follow. Values were computed here from the reads of four pooled replicates and scatter widely.
# Biological target: T1, Pho4 (S. cerevisiae) (UniProt P07270)
# T1 sequence: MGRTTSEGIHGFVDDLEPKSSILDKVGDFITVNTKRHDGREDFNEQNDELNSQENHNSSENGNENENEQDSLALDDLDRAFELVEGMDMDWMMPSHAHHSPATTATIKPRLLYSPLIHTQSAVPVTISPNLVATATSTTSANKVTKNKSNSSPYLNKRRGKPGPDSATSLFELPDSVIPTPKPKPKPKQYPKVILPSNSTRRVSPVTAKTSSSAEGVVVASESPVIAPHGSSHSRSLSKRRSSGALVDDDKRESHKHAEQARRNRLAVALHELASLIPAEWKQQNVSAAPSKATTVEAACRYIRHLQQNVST
# Assay: relative binding free energy (BET-seq); higher = weaker binding
# Details: reference: library average
row,Sequence,relative binding free energy [kcal/mol]
1,AGTGTCACGTGAGTTT,0.28
2,TATCTCACGTGTGTGT,0.12
3,TCGGTCACGTGCTAGG,0.02
4,TAATTCACGTGTAGGA,0.36
5,AATGACACGTGGGTAG,0.01
6,TATAGCACGTGAGTAT,0.1
7,TTGTTCACGTGGTTGC,0.21
8,GGTATCACGTGGACGT,0.06
9,AGTTCCACGTGTTATT,0.15
10,CTTGCCACGTGGATGG,-0.07
11,TAGGCCACGTGGTTGC,-0.07
12,AGTGGCACGTGGTTGT,-0.04
13,TAGGTCACGTGCATAA,0.03
14,TTCTGCACGTGAGTCG,0.36
15,CGGGACACGTGGTTGC,0.01
16,GGGCGCACGTGCGCTG,-0.1
17,ACAGGCACGTGGGGAT,-0.2
18,TTAGTCACGTGGGCAA,0.02
19,TTGTACACGTGGGTGC,-0.09
20,AAGTGCACGTGAGAGT,0.14
21,GCGGGCACGTGGTGAG,-0.02
22,CGGTTCACGTGACGTG,0.24
23,ACGGGCACGTGCTGGT,-0.25

row,Sequence,relative binding free energy [kcal/mol]
1,CAGGTCACGTGCGGTG,0.13
2,GTTCGCACGTGATTTT,0.1
3,TTGGACACGTGATGTA,0.06
4,ATGTGCACGTGTTTGC,-0.19
5,TTTTGCACGTGCGAGG,-0.05
6,GCGTTCACGTGGCGTT,0.18
7,GTGGACACGTGGGACT,-0.09
8,TCAATCACGTGGAGGT,0.3
9,TGGGACACGTGGTTGA,0.02
10,GGCGGCACGTGGAGAT,-0.01
11,ATTGTCACGTGAGGGA,0.18
12,AGGGCCACGTGAGTTA,0.21
13,TGAGGCACGTGTGAGT,-0.08
14,AGTTTCACGTGGGTGA,0.23
15,TGGTTCACGTGAGCGG,0.41
16,GTTATCACGTGGAGGC,0.28
17,TTGTTCACGTGTCCTT,0.15
18,TCATTCACGTGGGGAA,0.24
19,CGGTGCACGTGTGCTG,0.08
20,CGGCTCACGTGAGGTG,0.5
21,AGTGACACGTGGGGCA,-0.17
22,CTTGGCACGTGGGTAA,-0.18
23,GTGTGCACGTGTACGT,0.1

row,Sequence,relative binding free energy [kcal/mol]
1,AGGAACACGTGGGAGT,-0.06
2,TGTTTCACGTGTTTTC,0.29
3,AATGTCACGTGTGGCT,0.11
4,ATTTGCACGTGAGTCG,0.36
5,ACGGGCACGTGGGATG,-0.28
6,TGTCACACGTGGAAGT,0.13
7,TATTGCACGTGACTGA,0.15
8,GTTGTCACGTGGAGAG,0.11
9,ATTTGCACGTGGCGGG,-0.02
10,CAGCGCACGTGTGGAG,0.02
11,GGGGTCACGTGAGGTT,0.4
12,GGGGTCACGTGAGATC,0.44
13,AGTGTCACGTGGTTAT,-0.01
14,GTGCGCACGTGTGTGC,-0.18
15,TAATGCACGTGTGTTT,0.05
16,GGAGGCACGTGGCGTA,-0.28
17,ATGATCACGTGGGAGT,0
18,GCTGTCACGTGTGGGA,0.23
19,TGTAGCACGTGGATAG,-0.06
20,GAAGGCACGTGTGTGG,-0.08
21,ATGCACACGTGGTAGG,-0.08
22,GGGAACACGTGGTATG,-0.04
23,GTATTCACGTGTAAAG,0.24

row,Sequence,relative binding free energy [kcal/mol]
1,CACTGCACGTGTGGGT,0
2,AGGAACACGTGATTGT,0.19
3,GTGACCACGTGGGTGG,-0.14
4,AAGCTCACGTGTGGTG,0.04
5,TTGTTCACGTGATCGC,0.36
6,GTGGTCACGTGAGAGA,0.4
7,TGAGGCACGTGAGGTA,0.17
8,AGGAGCACGTGGAAGG,0.05
9,TGGTGCACGTGATTTC,0.11
10,CAGTTCACGTGTAGTT,0.17
11,TGTGGCACGTGTCTTA,-0.15
12,GTAGTCACGTGATAAT,0.22
13,AGCTTCACGTGAGTGG,0.21
14,TTGTACACGTGTGTTA,0.12
15,ATGGGCACGTGGCTAG,-0.39
16,TGTTGCACGTGATCGG,0.03
17,AAATGCACGTGTGAAT,0.17
18,GTAGTCACGTGCGGTG,0.17
19,GTCGGCACGTGGGGTA,-0.12
20,GGTTACACGTGAAAGT,0.34
21,ACTATCACGTGGTGAG,0.1
22,CAGTACACGTGTTGTT,0.01
23,TTTAGCACGTGAGTGT,0.08

row,Sequence,relative binding free energy [kcal/mol]
1,GAAGGCACGTGACGTG,0.07
2,TGTAACACGTGGTTAA,-0.02
3,GACGGCACGTGATTGG,0.19
4,GAAGACACGTGTTGTG,0.11
5,AAGCGCACGTGTATGG,0.02
6,GGTGTCACGTGGGGAA,0.03
7,ACGGACACGTGGGGTT,-0.06
8,GTTTGCACGTGAAATT,0.24
9,GGTCTCACGTGGTCGG,0.22
10,CATAGCACGTGAGGGG,0.23
11,ATAGGCACGTGTTTCA,-0.11
12,CTTGGCACGTGTGGAA,0.05
13,GTATCCACGTGGTAGG,-0.05
14,GAGTGCACGTGTGTTT,0.14
15,TCTATCACGTGCGTTG,0.29
16,GGCGGCACGTGGTCTG,-0.17
17,AGAGTCACGTGGAAAA,0.43
18,TTACTCACGTGGTTTG,0.25
19,GGGTGCACGTGAGCGA,0.08
20,GCGTTCACGTGGAAAG,0.44
21,TACGTCACGTGCGGGT,0.04
22,TGGCTCACGTGGGAGA,0.08
23,GGGCACACGTGGGTTC,0.01
